Results: PMC4336329 (PLoS ONE, 2015)
In all, about 310,000 compounds went through this assay and about 2,200 (0.71%) showed an effect of 50% or more. The effect is printed as a negative number. The list shows a part of the results.

target: human ether-à-go-go-related gene (hERG) potassium channel (human, UniProt Q12809); assay: primary screen, population patch clamp on CHO cells stably expressing hERG
Sequence (Q12809 whole entry, looked up): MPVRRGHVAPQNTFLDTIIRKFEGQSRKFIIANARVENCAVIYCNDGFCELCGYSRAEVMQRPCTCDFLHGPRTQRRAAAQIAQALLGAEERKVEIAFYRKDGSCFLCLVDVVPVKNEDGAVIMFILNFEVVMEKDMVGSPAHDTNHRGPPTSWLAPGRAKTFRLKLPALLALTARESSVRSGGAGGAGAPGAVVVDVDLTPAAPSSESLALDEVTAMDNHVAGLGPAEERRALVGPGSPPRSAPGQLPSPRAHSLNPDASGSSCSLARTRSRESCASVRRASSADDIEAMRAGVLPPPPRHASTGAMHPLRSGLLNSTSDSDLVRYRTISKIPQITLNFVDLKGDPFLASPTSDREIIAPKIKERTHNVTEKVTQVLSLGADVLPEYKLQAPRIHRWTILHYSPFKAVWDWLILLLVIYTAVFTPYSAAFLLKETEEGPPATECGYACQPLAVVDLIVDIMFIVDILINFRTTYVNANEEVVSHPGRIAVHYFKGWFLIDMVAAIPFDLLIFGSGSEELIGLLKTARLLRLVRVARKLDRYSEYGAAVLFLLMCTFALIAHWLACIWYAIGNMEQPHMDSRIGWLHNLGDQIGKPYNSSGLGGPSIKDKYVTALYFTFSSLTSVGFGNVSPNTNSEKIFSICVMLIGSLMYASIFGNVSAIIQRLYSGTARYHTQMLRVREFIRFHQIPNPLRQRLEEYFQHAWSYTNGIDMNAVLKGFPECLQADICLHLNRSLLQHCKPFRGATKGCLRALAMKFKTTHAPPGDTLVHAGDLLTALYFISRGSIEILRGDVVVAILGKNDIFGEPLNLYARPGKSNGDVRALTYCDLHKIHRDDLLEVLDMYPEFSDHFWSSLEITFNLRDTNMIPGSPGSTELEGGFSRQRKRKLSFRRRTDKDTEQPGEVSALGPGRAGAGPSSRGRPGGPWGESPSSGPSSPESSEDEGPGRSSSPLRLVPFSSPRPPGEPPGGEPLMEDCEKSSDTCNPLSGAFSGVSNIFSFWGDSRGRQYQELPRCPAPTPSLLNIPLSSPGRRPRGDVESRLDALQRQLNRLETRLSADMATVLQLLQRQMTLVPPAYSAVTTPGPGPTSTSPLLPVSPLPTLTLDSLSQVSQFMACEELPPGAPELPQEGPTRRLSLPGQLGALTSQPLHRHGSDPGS

Going from `CCOC(=O)CSc1nnc(-c2cccc(Cl)c2)n1CC` to `CCCn1c(SCC(=O)c2c(C)[nH]c(C)c2C(=O)OCC)nc2ccccc21`, the “hERG current change (%, negative = inhibition) at 1uM” value falls from 7.11% to 2.93%.

Going from `CCOc1ccc2oc(=O)cc(CN3CCN(C(=O)c4ccco4)CC3)c2c1` to `CCN(C(=O)CSc1nc2cc(Cl)ccc2c(=O)n1Cc1ccco1)C1CCS(=O)(=O)C1` (stereo not shown), the “hERG current change (%, negative = inhibition) at 1uM” value falls from -46.5% to -70.2%.

Going from `S=C(Nc1ccc2cn[nH]c2c1)Nc1ccccc1Cl` to `S=C(NCc1ccc(Cl)cc1Cl)Nc1ccccc1`, the “hERG current change (%, negative = inhibition) at 1uM” value rises from 3.81% to 6.02%.

Going from `CCOC(=O)c1ccc2[nH]c(C)c(C)c2c1` to `CCOC(=O)c1sc(NC(=O)c2cc3n(n2)C(C(F)(F)F)CC(c2ccccc2)N3)c(C(=O)OCC)c1C` (stereo not shown), the “hERG current change (%, negative = inhibition) at 1uM” value rises from -1.31% to 15.8%.

Compared with `CC(C)C[C@@H](CC#N)N1CCN(CCc2ccccc2)CCC1=O`, `OCCCc1nc2ccccc2n1CCc1ccccc1` is lower in “hERG current change (%, negative = inhibition) at 1uM” value: 12.1% for the first, -3.76% for the second.

Compared with `C/C(=N\N=C(/N)SC1CC(=O)N(c2cccc(Cl)c2)C1=O)c1cccs1` (stereo not shown), `COc1cc(NC(=O)c2ccc(OC)c([N+](=O)[O-])c2)ccc1NC(=O)c1cccs1` is lower in “hERG current change (%, negative = inhibition) at 1uM” value: 15.1% for the first, -6.07% for the second.

Compared with `CC(=O)N1N=C(c2cccc([N+](=O)[O-])c2)OC1c1ccc(Br)cc1` (stereo not shown), `Cc1cc(C)n(S(=O)(=O)c2cccc([N+](=O)[O-])c2)n1` is lower in “hERG current change (%, negative = inhibition) at 1uM” value: 13.9% for the first, 6.71% for the second.

Compared with `Cc1cccc(C)c1OCCSc1nc2ccccc2n1CC(=O)O`, `CCn1c(SCC(=O)N/N=C/c2ccc(O)c(OC)c2)nc2ccccc21` is lower in “hERG current change (%, negative = inhibition) at 1uM” value: 11.1% for the first, 9.28% for the second.

Compared with `COc1ccccc1NC(=O)COC(=O)Cc1cccs1`, `COc1ccccc1NC(=O)C(C)Sc1nc(-c2ccccc2)cn1N` (stereo not shown) is lower in “hERG current change (%, negative = inhibition) at 1uM” value: 11.4% for the first, -10.9% for the second.

Going from `CSc1ccc(CN2CCC(N3CC(C)OC(C)C3)CC2)cc1.O=C(O)C(=O)O` (stereo not shown) to `COCCNC(=O)c1cccc(OC2CCN(Cc3ccc(C(C)C)cc3)CC2)c1`, the “hERG current change (%, negative = inhibition) at 1uM” value falls from 6.46% to -11.3%.

First: Brc1ccc(-c2noc(CCc3ccccc3)n2)cc1
Second: Cc1ccc(-c2nc(-c3ccccc3)no2)c(Cl)c1
The “hERG current change (%, negative = inhibition) at 1uM” value of the first is lower: 2.19% for the first, 9.08% for the second.

First: CCN(CC)CC.COc1ccccc1-n1c(=S)[nH]c2c(sc(=S)n2-c2ccc(C)cc2C)c1=O
Second: COc1ccc(CNc2cc(C)ccc2C)c(OC)c1OC
The “hERG current change (%, negative = inhibition) at 1uM” value of the first is higher: 11.7% for the first, -2.17% for the second.

First: COc1ccccc1NC(=O)c1c(Nc2ccccc2F)sc(C(=O)Nc2cccc(Cl)c2)c1N
Second: O=C(Cn1c(=O)oc2cccnc21)Nc1ccccc1Oc1ccc(Cl)cc1Cl
The “hERG current change (%, negative = inhibition) at 1uM” value of the first is lower: 2.19% for the first, 13.7% for the second.

Compared with `Nc1cc(N)nc(SCc2ccccc2)n1`, `c1ccc(CCNCC2COc3ccccc3O2)cc1` (stereo not shown) is higher in “hERG current change (%, negative = inhibition) at 1uM” value: -2.95% for the first, 9.1% for the second.

First: COC(=O)c1ccccc1NC(=O)Cn1cnc([N+](=O)[O-])c1
Second: CCc1ccc(-c2cnc3ccccc3n2)cc1NC(=O)CNC(=O)c1ccccc1
The “hERG current change (%, negative = inhibition) at 1uM” value of the first is lower: 10.3% for the first, 18.4% for the second.

Going from `CCOC(=O)c1cnn(CC2CCCCC2)c1N` to `CC1CCCCN1C(=S)NC(=O)c1ccco1` (stereo not shown), the “hERG current change (%, negative = inhibition) at 1uM” value falls from 5.7% to 5.31%.

Compared with `O=c1c2ccccc2ncn1CCOCCOc1ccc([N+](=O)[O-])cc1`, `CN(C)c1nc(N)ncc1-c1ccc(Oc2ccccc2)cc1` is higher in “hERG current change (%, negative = inhibition) at 1uM” value: -19.8% for the first, 9.59% for the second.

Compared with `CN(C)c1ccc(CNC(=O)C2CCN(S(=O)(=O)c3ccc4c(c3)CCC(=O)N4)CC2)cc1`, `COc1ccc(S(=O)(=O)N2CCCCC2)cc1NC(=O)CNc1ccccc1N1CCCC1=O` is lower in “hERG current change (%, negative = inhibition) at 1uM” value: 10.7% for the first, 3.71% for the second.

Going from `Cc1ccc(S(=O)(=O)NNC(=O)c2ccc(F)cc2)cc1` to `Cc1ccnc(NS(=O)(=O)c2ccc(NC(=O)c3ccc(N4C(=O)CCC4=O)cc3)cc2)n1`, the “hERG current change (%, negative = inhibition) at 1uM” value falls from 10.8% to 0.0228%.

Compared with `COc1cc(/C=N/Nc2nc(=O)[nH]nc2C)cc([N+](=O)[O-])c1O`, `CCN(CC)C(=O)c1cn(CC)c(=O)c2cc(OC)c(OC)cc12` is lower in “hERG current change (%, negative = inhibition) at 1uM” value: 8.92% for the first, 3.86% for the second.

Compared with `O=C(COC(=O)c1cc(S(=O)(=O)N2CCCC2)ccc1O)NCCc1ccccc1`, `Cc1ccc(S(=O)(=O)N2CCOCC2)cc1C(=O)OCC(=O)c1ccc[nH]1` is higher in “hERG current change (%, negative = inhibition) at 1uM” value: 4.91% for the first, 10.9% for the second.

Going from `O=C(O)CSc1nnc(COc2ccccc2)n1-c1ccccc1` to `Nc1c2c(=O)oc(-c3ccccc3)cc2nn1-c1ccccc1`, the “hERG current change (%, negative = inhibition) at 1uM” value rises from -2.34% to 8.15%.

Compared with `Cc1ccc(-n2c3c(c(O)c(-c4ccccc4)c2=O)C(=O)CC(C)(C)C3)cc1`, `CC(C)NC(=O)C1CCN(C(=O)c2ccc(-c3ccccc3)cc2)CC1` is higher in “hERG current change (%, negative = inhibition) at 1uM” value: -0.0154% for the first, 11.7% for the second.

First: COc1ccc(NC(=S)N2CCC(NC(=O)c3ccccc3C)CC2)cc1
Second: CC(=O)Nc1ccc(S(=O)(=O)N2CCN(c3nnnn3-c3ccccc3)CC2)cc1
The “hERG current change (%, negative = inhibition) at 1uM” value of the first is higher: 15.7% for the first, 10.9% for the second.

Compared with `CCCCCSc1nnc(C)c(=O)[nH]1`, `CCCCn1c(N)c(N(CCOC)C(=O)Cn2c(=O)oc3ccccc32)c(=O)[nH]c1=O` is lower in “hERG current change (%, negative = inhibition) at 1uM” value: 14% for the first, 13.5% for the second.

First: Cc1ccc(Nc2cc(C)nc(N3CCOCC3)n2)cc1
Second: Cc1cc(N2CCOCC2)nc2ccc(NC(=O)CCC(=O)N3CCC(C)CC3)cc12
The “hERG current change (%, negative = inhibition) at 1uM” value of the first is higher: 11.1% for the first, 5.16% for the second.

Going from `CCn1cc(C(=O)N2CCCC2)c(=O)c2cc(S(=O)(=O)N(C)C)ccc21` to `CCN(CC)C(=O)C1CCCN(C(=O)Nc2ccc(NC(=O)N3CCCC(C(=O)N(CC)CC)C3)cc2)C1` (stereo not shown), the “hERG current change (%, negative = inhibition) at 1uM” value falls from 10.6% to -6.44%.

First: Cc1ccc(S(=O)(=O)c2nnn3c2nc(N2CCN(c4ccccn4)CC2)c2ccccc23)cc1
Second: CC(=O)Nc1c(C(=O)N2CCN(c3ccccn3)CC2)cnn1-c1ccc(C)cc1
The “hERG current change (%, negative = inhibition) at 1uM” value of the first is higher: 11.8% for the first, 8.88% for the second.

Compared with `O=S(=O)([N-]c1nc2ccccc2nc1-[n+]1ccc(Cc2ccccc2)cc1)c1ccc(Br)s1`, `CCN(c1ccccc1)S(=O)(=O)c1ccc(Oc2ccc(-n3ccnc3)cc2)nc1` is lower in “hERG current change (%, negative = inhibition) at 1uM” value: 3.01% for the first, -15.9% for the second.

Compared with `COc1cccc(/C=C2/SC(=S)N(CCC(=O)N3CCOCC3)C2=O)c1`, `COc1cccc(C(=O)Nc2cc3c(cc2C(C)=O)OCCO3)c1` is lower in “hERG current change (%, negative = inhibition) at 1uM” value: 5% for the first, -4.99% for the second.

Going from `Cc1cccc(C)c1OC(=O)CCN1C(=O)C2C3C=CC(C4CC34)C2C1=O` (stereo not shown) to `CCOC(=O)[C@H]1[C@H]2COc3ccc(Br)cc3[C@@H]2N2C(=O)c3ccc(C)cc3NC(=O)[C@@]12C`, the “hERG current change (%, negative = inhibition) at 1uM” value rises from 6.58% to 12.3%.

Compared with `O=C(CCCN1CCC(n2c(=O)[nH]c3ccccc32)CC1)c1ccc(F)cc1`, `c1coc(CNc2nc3ccccc3n2CCN2CCOCC2)c1` is higher in “hERG current change (%, negative = inhibition) at 1uM” value: -80.8% for the first, -18.2% for the second.

First: NC(=O)CSc1nnc(NC(=O)C23CC4CC(CC(C4)C2)C3)s1
Second: Cc1cccc(N(C(=O)CCC(=O)Nc2cccnc2)C(C(=O)NC2CCCC2)c2ccncc2)c1 (stereo not shown)
The “hERG current change (%, negative = inhibition) at 1uM” value of the first is lower: -0.271% for the first, 10.8% for the second.

Going from `COC(=O)CSc1nnc(CNC(=O)c2cc(OC)cc(OC)c2)n1-c1ccc(F)cc1` to `COc1ccc(OC)c(CNC(=O)CCSCc2ccc(F)cc2Cl)c1`, the “hERG current change (%, negative = inhibition) at 1uM” value rises from 2.01% to 9.26%.

First: CCOC(=O)c1cccc(COC(=O)c2cccc(-c3nnc(-c4ccccc4)o3)c2)c1
Second: Cc1ccc(/C(N)=N/OC(=O)Oc2ccccc2)cc1
The “hERG current change (%, negative = inhibition) at 1uM” value of the first is lower: 7.84% for the first, 8.45% for the second.

Compared with `COc1cc2c(cc1OC)CN(C(C)C(=O)N1CCc3ccccc31)CC2` (stereo not shown), `CCOC(=O)C1=C(N)OC2=C(C(=O)CC(C)(C)C2)C1c1ccccc1OCC#N` (stereo not shown) is higher in “hERG current change (%, negative = inhibition) at 1uM” value: 5.72% for the first, 11% for the second.

Compared with `CC(NC(=O)c1ccco1)c1nc(-c2ccc(Cl)cc2)no1` (stereo not shown), `CCCc1ccc(-c2csc(NC(=O)Cc3cccs3)n2)cc1` is higher in “hERG current change (%, negative = inhibition) at 1uM” value: -5.75% for the first, 6.69% for the second.

Going from `COc1ccc(CCNS(=O)(=O)c2ccc(OC)cc2)cc1` to `Cc1ccc(S(=O)(=O)N2C(=O)CCC2C(=O)NCc2ccco2)cc1` (stereo not shown), the “hERG current change (%, negative = inhibition) at 1uM” value rises from -7.01% to 12.8%.

First: CCc1cc(=O)oc2c(CNCc3ccccc3F)c(O)c(Cl)cc12.Cl
Second: N#C/C(=C\c1ccc(-c2ccccc2Cl)o1)C(=O)Nc1nc2ccccc2s1
The “hERG current change (%, negative = inhibition) at 1uM” value of the first is lower: 3.41% for the first, 17.6% for the second.

Going from `CCC(CC)C(=O)N1c2ccc(F)cc2CCC1C` (stereo not shown) to `CN(C)Cc1c(C(=O)N/N=C/c2ccc(OCc3ccc(F)cc3)cc2)nnn1-c1nonc1N`, the “hERG current change (%, negative = inhibition) at 1uM” value rises from 5.64% to 11.5%.

Compared with `O=C(Cc1cccs1)NC(c1ccccc1)c1ccccc1`, `COc1ccc(N2C(=O)N3[C@H](c4cccc(C)c4)[C@@H]4C(=O)N(Cc5ccccc5)C(=O)[C@@H]4[C@]3(Cc3ccccc3)C2=O)cc1` is higher in “hERG current change (%, negative = inhibition) at 1uM” value: 4.34% for the first, 10.1% for the second.

Compared with `Cc1cccc2nc(CSc3nc4ccc([N+](=O)[O-])cc4[nH]3)cn12`, `CCCC(O)(c1ccc(Cl)cc1)C(CN1CCOCC1)c1ccc(Cl)cc1.Cl` (stereo not shown) is higher in “hERG current change (%, negative = inhibition) at 1uM” value: 0.208% for the first, 6.52% for the second.

For `O=S(=O)(Nc1ccccn1)c1cnc(Cl)c(Br)c1`, the “hERG current change (%, negative = inhibition) at 1uM” value was 8.08%.
